Assay results taken from PubChem BioAssay AID686971 (National Center for Advancing Translational Sciences (NCATS), 2013).
Screen size: about 360,000 compounds; about 7,500 (2.1%) were called active. The inconclusive results got no clear call from the source; some entries with a clear call stand among them for comparison. The call rests on the fitted dose curve; in most records, active means well fitted cell-killing curve with a large enough effect; inconclusive means small, poorly fitted or top-dose-only effect, or effect the other way, or another doubt; inactive means no such curve, though single readings can be large or run the other way. No potency is given beside an inconclusive call; the fits are too rough.

Experiment: qHTS for induction of synthetic lethality in tumor cells producing 2HG: qHTS for the HT-1080-IDH1KD cell line;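 on activity, negative = toxicity: 0% = DMSO wells and -100% = cell-free medium wells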
Conditions: HT-1080 IDH1 knockdown viability, ATP luminescence, 48 h; activity, negative = toxicity: at 46.1 µM (top of the series) unless noted
Procedure, shortened: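 Using the IDH1-knockdown HT-1080 line run in the same batch and compound series as the NT line, viability after 48 h at 37 °C was determined by CellTiter-Glo luminescence and expressed as % activity.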
Potency means the concentration at half of the fitted maximal effect; tags describe the fitted curve by direction and shape.

SMILES	Potency	activity, negative = toxicity
O=C(c1ccccc1Br)N1CCN(c2ccccc2)CC1	inactive	
CCC(CC)C(=O)c1c[nH]c(C(=O)NN)c1	inconclusive [cytotoxic, single point]	
COC(=O)c1cc(NC(=O)c2cc(-c3ccccc3Cl)oc2C(F)(F)F)ccc1N1CCOCC1	inconclusive [cytotoxic, single point]	
COCc1cc(=O)n2[nH]c(C)c(-c3ccc(Cl)cc3)c2n1	inconclusive [cytotoxic, partial curve]	
O=C(NC1CCCCC1)N1CCSC1=Nc1ccccc1	inconclusive [cytotoxic, partial curve]	
Cc1ccc(C)c(Oc2cc(NC(=O)CCCn3nc(C)c([N+](=O)[O-])c3C)cc([N+](=O)[O-])c2)c1	inconclusive [cytotoxic, single point]	
COc1cccc(C(=O)N/N=C/c2ccc(OC)c(COc3ccccc3C(N)=O)c2)c1	inconclusive [cytotoxic, single point]	
COc1ccc(OC)c(S(=O)(=O)N2Cc3ccccc3CC2C(=O)Nc2nccs2)c1 (stereo not drawn)	inconclusive [cytotoxic, single point]	
CN1CCN(CC(=O)c2ccccc2F)CC1	inconclusive [rising, single point]	
COc1ccc(/C=N/NC(=O)c2ccc(F)cc2)cc1CN1CCc2cc(OC)c(OC)cc2C1C (stereo not drawn)	inconclusive [cytotoxic, single point]	
Cn1ccnc1Sc1cc(NCCCO)c([N+](=O)[O-])c2nonc12	inconclusive [cytotoxic, single point]	
CN1/C(=C\P(=O)(N(C)C)N(C)C)C(C)(C)c2ccccc21	inconclusive [cytotoxic, single point]	
CCN1C(=O)/C(=C2\SC(N3CCOCC3)=NC2=O)c2ccccc21	inactive	
CCN(CCNC(=O)CS(=O)(=O)Cc1nc(-c2cccc(OC)c2)oc1C)c1ccccc1	inconclusive [cytotoxic, single point]	
Brc1ccc(OCc2ccccc2)c(CNCc2ccncc2)c1	inconclusive [cytotoxic, single point]	
COc1ccc(Nc2cc(C(=O)N3CCc4ccccc4C3)c3ccccc3n2)c(OC)c1	inconclusive [cytotoxic, single point]	
Cc1oc(-c2ccc(Cl)cc2)cc1C(=O)/C(C#N)=C/Nc1ccccc1	inactive	
COc1ccc(/C=N/NC(=O)CCn2cnc(-c3ccccc3)c2-c2ccccc2)cc1OC	active: 8.2 µM	
COc1ccc(OC)c(C(C[N+](=O)[O-])c2c(C)cc3ccccn23)c1 (stereo not drawn)	active: 18.4 µM	
COc1ccc2c(c1)OC(=O)CC2c1cc(OC)c(OC)c(OC)c1 (stereo not drawn)	active: 14.6 µM	
CN1N=C(c2ccc(F)c(F)c2)CSC1=NCc1ccccc1	inconclusive [rising, single point]	
CCC(=O)c1ccc(OCC(O)Cn2c(C)nc3ccccc32)cc1 (stereo not drawn)	active: 23.1 µM	
O=C(NNc1c(Cl)cccc1Cl)c1sc2ccccc2c1Cl	inconclusive [cytotoxic, single point]	
Cc1ccc(NC(=O)c2ccc(NS(=O)(=O)c3cccc4cccnc34)cc2)cc1	inconclusive [cytotoxic, partial curve]	
O=C(NNC(=O)c1sc2ccccc2c1Cl)Nc1ccc(Cl)cc1	inactive	

SMILES	Potency	activity, negative = toxicity
Cc1csc(NC(=O)c2ccco2)n1	inactive	
CC1(C(=O)NCc2ccccc2)CN(S(C)(=O)=O)CC(=O)N1CC(F)(F)F (stereo not drawn)	inactive	
CC(=O)c1ccc(NC(=O)C(C)OC(=O)/C=C/c2ccco2)cc1 (stereo not drawn)	inconclusive [cytotoxic, partial curve]	
CCn1cc(CN2CCN(Cc3ccccc3)C(CCO)C2)c2ccccc21 (stereo not drawn)		inconclusive: -34.9% [cytotoxic]
COc1cccc(N2CCN(C(=O)c3cc4c(=O)n(Cc5ccccc5)ccc4nc3C)CC2)c1	inconclusive [cytotoxic, partial curve]	
CC(C)Cn1c2c(c(O)c(C(=O)Nc3nccs3)c1=O)CCCC2	inconclusive [rising, partial curve, poor fit]	
C/C(=N\NC(=O)c1ccccc1N)c1ccc(NC(=O)Cc2ccccc2)cc1		inconclusive: -5% [cytotoxic]
O=C1/C(=C\c2c(NCCOCCO)nc3ccccn3c2=O)SC(=S)N1Cc1ccco1	inconclusive [cytotoxic, single point]	
Cc1ccc(Nc2ccc([N+](=O)[O-])nc2[N+](=O)[O-])cc1	inconclusive [cytotoxic, single point]	
Cc1nn(CC2CC2)c(=O)n1-c1cccc(Cl)c1	inactive	
COc1ccc(N2CCOCC2)c(NC(=O)COc2cccc(C)c2)c1	inactive	
CCN1CCN(CCCNC(=O)c2ccc3c(c2)N(Cc2ccccc2)CCS3)CC1	inconclusive [cytotoxic, single point]	
Cc1cc(C)c2nc(NNC(=O)c3ccc(S(=O)(=O)N4CC(C)CC(C)C4)cc3)sc2c1 (stereo not drawn)	active: 11.6 µM	
C[C@H](CO)N1C[C@H](C)[C@@H](CN(C)C(=O)Nc2ccc3c(c2)OCO3)Oc2ccc(NS(=O)(=O)c3ccc(F)cc3)cc2C1=O	inactive	
CCOC(=O)c1c(NC(=O)Cn2cnc([N+](=O)[O-])n2)sc(C)c1C	inactive	
O=C(N/N=C/c1ccccc1F)c1ccc(COc2ccccc2Cl)o1	inactive	
CC1(C)OC(c2ccccc2)=C/C(=C/C=Nc2ccccc2)O1	inactive	
CCNC(=S)Nc1ccc2c(c1)c(=O)n(C)n2-c1ccc(C(C)(C)C)cc1	inconclusive [cytotoxic, partial curve, poor fit]	
CC1=NN(c2ccccc2)C(=O)C1N=Nc1ccc(N)cc1 (stereo not drawn)	active: 23.1 µM	
COc1ccc(S(=O)(=O)N2CCCOC2CNC(=O)C(=O)NCc2ccccc2C)cc1 (stereo not drawn)	inactive	
CCCCCCSc1ccc([C@@H]2[C@H]3C(=O)N(C)C(=O)[C@H]3[C@]3(C(=O)OC)CCCCN23)cc1OC	inactive	
Cc1nc(Sc2nnnn2C)c2c3c(sc2n1)CCC3	active: 5.17 µM	
CN(Cc1cc(Cl)cc(Cl)c1)[C@H]1C[C@H]2c3[nH]c4ccccc4c3CCN2C(=O)[C@H]1CO	inconclusive [cytotoxic, single point]	
COC(=O)[C@@]12C[C@@H](CC(=O)NCc3ccccc3)C(=O)N(Cc3ccc4c(c3)OCO4)C1=CCC(C)(C)C2	inconclusive [cytotoxic, single point]	
CC(=O)C1=NN(c2ccc(Cl)cc2)C(c2ccc3c(c2)OCO3)N(C(C)=O)N1C (stereo not drawn)	inactive	

SMILES	Potency	activity, negative = toxicity
O=C(CCC1N=C2c3ccccc3N=C(SCc3cccc(Cl)c3)N2C1=O)NCc1ccco1 (stereo not drawn)	inconclusive [cytotoxic, partial curve]	
CN(C)c1ccc(NC(=O)/C=C/c2c(Cl)cccc2Cl)cc1	inconclusive [cytotoxic, partial curve]	
CN1CCN(CC(=O)N2CCn3c4c(c5cc(C6CCCCC6)ccc53)CCCC42)CC1 (stereo not drawn)	active: 23.1 µM	
CCC(=O)c1ccc(OCC(O)CN(CCc2ccccc2)Cc2ccccc2)cc1 (stereo not drawn)	inactive	
COc1cc(C(=O)Nc2nc3ccc(S(=O)(=O)N4CCOCC4)cc3s2)cc(OC)c1OC	inactive	
NC(=O)c1ccccc1NC(=O)CCc1ccccc1	inactive	
C[C@H](c1ccccc1)N1C[C@@H](COCc2ccccc2)Oc2cc(N3CCC[C@@H]3CO)ccc2S1(=O)=O	inconclusive [cytotoxic, single point]	
Cc1nc2c3cc(Cl)ccc3n(CCN3CCCCC3)c2s1	inconclusive [cytotoxic, partial curve]	
CCn1c(SCC(=O)NCc2ccccc2)nc2nc3c(cc2c1=O)CCCC3	inactive	
CN1CCN(C(=O)/C=C/c2ccc([N+](=O)[O-])o2)CC1	active: 20.6 µM	
Cc1ccc2sc(N(CCCN(C)C)C(=O)c3ccc(S(=O)(=O)N4CCc5ccccc5C4)cc3)nc2c1C	inconclusive [cytotoxic, single point]	
O=C(Nc1cccc(NC(=O)c2ccccc2Cl)c1)c1ccc([N+](=O)[O-])o1	active: 9.2 µM	
Cc1ccnc(NC(=O)CSc2ccc3c(c2)OCCO3)c1	inactive	
COC(=O)C1=C(C)OC(N)=C(C#N)C1c1cc(OC)ccc1OC (stereo not drawn)	inconclusive [cytotoxic, partial curve]	
Cc1ccc(N/N=C/c2cccnc2)cc1	active: 8.2 µM	
CCOC(=O)C1=C(N)n2c(s/c(=C\c3ccncc3)c2=O)=C(C(=O)OCC)C1c1ccncc1 (stereo not drawn)	inactive	
CCN(CC)C(=O)c1cccc(-c2csc(C(C)(NC(C)=O)c3ccccc3)n2)c1 (stereo not drawn)	inactive	
O=C(COC(=O)c1ccc(N2CCCC2=O)cc1)NCc1ccco1	inactive	
O=[N+]([O-])c1ccc(Cl)c(/C=N/NC(=S)Nc2ccccc2)c1	active: 4.47 µM	
Cc1nc2ncnn2c(C)c1CCC(=O)N1CCc2ccccc21	inconclusive [cytotoxic, single point]	
Cc1cccc(N=C2NN=C(c3c(C)[nH]c4ccccc34)CS2)c1	active: 18.4 µM	
O=C(CC(=O)N/N=C/c1ccccc1O)NCc1cccnc1	inactive	
CC(O)(c1ccc(F)c(F)c1)c1nc(-c2ccncc2)cs1 (stereo not drawn)	inconclusive [cytotoxic, partial curve, poor fit]	
